{"source": "paper PMC4336329", "about": "(PLoS ONE, 2015)", "note": "Among all 310,000 compounds or so, about 14,000 (4.5%) showed an effect of 50% or more. The effect is printed as a negative number. This is one part of the list.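 Note: peak tail current of the secondary pulse compared with the same well before compound.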"}
{"biological_target": "human ether-à-go-go-related gene (hERG) potassium channel (human, UniProt Q12809)", "sequence (Q12809 whole entry, looked up)": "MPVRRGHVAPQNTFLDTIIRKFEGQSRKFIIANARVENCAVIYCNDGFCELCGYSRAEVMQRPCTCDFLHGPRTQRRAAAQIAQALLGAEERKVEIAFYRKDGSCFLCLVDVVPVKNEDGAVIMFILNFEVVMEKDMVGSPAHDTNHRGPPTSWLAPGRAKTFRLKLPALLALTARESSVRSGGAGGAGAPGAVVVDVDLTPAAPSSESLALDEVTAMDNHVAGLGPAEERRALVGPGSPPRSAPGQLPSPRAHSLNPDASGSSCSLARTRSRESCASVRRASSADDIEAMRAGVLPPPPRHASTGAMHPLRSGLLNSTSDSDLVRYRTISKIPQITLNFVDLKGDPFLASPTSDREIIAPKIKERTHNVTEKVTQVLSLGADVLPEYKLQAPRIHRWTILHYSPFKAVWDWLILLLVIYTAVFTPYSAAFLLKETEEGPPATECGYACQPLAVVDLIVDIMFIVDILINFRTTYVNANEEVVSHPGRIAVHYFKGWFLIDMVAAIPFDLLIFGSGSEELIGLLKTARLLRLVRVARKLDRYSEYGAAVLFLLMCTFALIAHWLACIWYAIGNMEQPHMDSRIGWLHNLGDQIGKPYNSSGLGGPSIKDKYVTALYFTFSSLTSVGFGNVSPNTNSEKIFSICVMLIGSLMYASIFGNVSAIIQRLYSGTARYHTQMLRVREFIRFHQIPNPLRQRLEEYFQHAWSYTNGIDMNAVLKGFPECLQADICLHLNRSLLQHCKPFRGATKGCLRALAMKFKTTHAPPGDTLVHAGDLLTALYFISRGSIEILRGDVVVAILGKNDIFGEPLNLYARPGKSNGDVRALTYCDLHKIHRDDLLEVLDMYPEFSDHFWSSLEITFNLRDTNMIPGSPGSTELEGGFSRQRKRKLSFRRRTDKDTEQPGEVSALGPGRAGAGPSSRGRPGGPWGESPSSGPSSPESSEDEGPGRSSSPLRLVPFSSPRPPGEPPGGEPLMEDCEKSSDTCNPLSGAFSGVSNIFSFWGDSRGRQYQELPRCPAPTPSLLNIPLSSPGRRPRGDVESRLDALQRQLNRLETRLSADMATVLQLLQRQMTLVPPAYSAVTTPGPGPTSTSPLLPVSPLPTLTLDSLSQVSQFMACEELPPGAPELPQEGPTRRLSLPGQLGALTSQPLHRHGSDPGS", "experiment": "primary screen, population patch clamp on CHO cells stably expressing hERG", "units": {"hERG current change (%, negative = inhibition) at 10uM": "%"}}
{"smiles": "O=C(OC1CCOC1=O)C1CCN(S(=O)(=O)c2c(Cl)cccc2Cl)CC1", "note": "(stereo not drawn)", "hERG current change (%, negative = inhibition) at 10uM": -8.18}
{"smiles": "Cc1ccc(NC(=O)N2CCCC2C(=O)NCc2cccs2)cc1", "note": "(stereo not drawn)", "hERG current change (%, negative = inhibition) at 10uM": -2.17}
{"smiles": "COCCOc1ccc(C(F)(F)F)cc1NC(=O)c1ccc(C)cc1", "hERG current change (%, negative = inhibition) at 10uM": -0.151}
{"smiles": "CCCc1nc2ccccc2c(C(=O)OCC(=O)Nc2ccc(S(=O)(=O)N3CCOCC3)cc2)c1CC", "hERG current change (%, negative = inhibition) at 10uM": 12}
{"smiles": "O=C(CSc1nc2c(sc3ccccc32)c(=O)n1CCCN1CCCC1)NCc1ccco1", "hERG current change (%, negative = inhibition) at 10uM": -73}
{"smiles": "Cc1nn(C)c(C)c1CNC(=O)Nc1ccc2c(c1)OCO2", "hERG current change (%, negative = inhibition) at 10uM": 12}
{"smiles": "Cc1cc(SCC(=O)NC2CCCC2)nc2ccccc12", "hERG current change (%, negative = inhibition) at 10uM": -6.05}
{"smiles": "CCC(=O)N1CCc2cc(S(=O)(=O)NCCC(=O)N3CCN(Cc4ccccc4)CC3)ccc21", "hERG current change (%, negative = inhibition) at 10uM": -15.9}
{"smiles": "CCC(C(=O)OC)n1cnc2c(nnn2-c2cccc(Cl)c2)c1=O", "note": "(stereo not drawn)", "hERG current change (%, negative = inhibition) at 10uM": -3.07}
{"smiles": "COC(=O)c1cc(NC(=O)CSc2nnc(CN3CCOCC3)n2C)ccc1Cl", "hERG current change (%, negative = inhibition) at 10uM": -9.74}
{"smiles": "COC(=O)/C(=N/Nc1ccccc1OC)N1CCCc2ccccc21", "hERG current change (%, negative = inhibition) at 10uM": -0.396}
{"smiles": "CCCCNC(=O)COC(=O)c1ccc(N(C)C)cc1", "hERG current change (%, negative = inhibition) at 10uM": 34.8}
{"smiles": "CC(=O)c1cccc(N=C2NC(=O)CS2)c1", "hERG current change (%, negative = inhibition) at 10uM": 14.6}
{"smiles": "Nc1nc(CCl)nc(N(c2ccccc2)c2ccccc2)n1", "hERG current change (%, negative = inhibition) at 10uM": 4.48}
{"smiles": "O=C(CN1C(=O)S/C(=C/c2ccc(N3CCOCC3)cc2)C1=O)N1CCOCC1", "hERG current change (%, negative = inhibition) at 10uM": 2.7}
{"smiles": "Cc1ccc(/C=C2/SC(=O)N(CC(=O)N3CCOCC3)C2=O)s1", "hERG current change (%, negative = inhibition) at 10uM": -3.89}
{"smiles": "CCC(C)N1CNc2c(c(=O)[nH]c(=S)n2-c2cccc(C)c2)C1", "note": "(stereo not drawn)", "hERG current change (%, negative = inhibition) at 10uM": 15.7}
{"smiles": "COc1ccc(C2NC(=O)NC(O)(C(F)(F)F)C2C(=O)c2ccccc2)cc1OC", "note": "(stereo not drawn)", "hERG current change (%, negative = inhibition) at 10uM": -15.9}
{"smiles": "CN1CCC(N2CC3CC(C2)c2cccc(=O)n2C3)CC1", "note": "(stereo not drawn)", "hERG current change (%, negative = inhibition) at 10uM": -16.4}
{"smiles": "Cc1cnc(NC(=O)CSc2nnc(C)s2)s1", "hERG current change (%, negative = inhibition) at 10uM": 15.6}
{"smiles": "CC1(c2ccccc2)ON(c2ccccc2C(F)(F)F)C1=O", "note": "(stereo not drawn)", "hERG current change (%, negative = inhibition) at 10uM": 1.34}
{"smiles": "CN(C)S(=O)(=O)N1CCC(CCCC2CCN(S(=O)(=O)N(C)C)CC2)CC1", "hERG current change (%, negative = inhibition) at 10uM": 4.14}
{"smiles": "O=C(O)CCC(=O)c1cccc2ccccc12", "hERG current change (%, negative = inhibition) at 10uM": 6.18}
{"smiles": "COc1cc2c(cc1NS(=O)(=O)N1CCCC1)oc1ccccc12", "hERG current change (%, negative = inhibition) at 10uM": -10.7}
{"smiles": "O=C(CSc1nnc2c(n1)[nH]c1ccccc12)Nc1cccc(S(=O)(=O)N2CCOCC2)c1", "hERG current change (%, negative = inhibition) at 10uM": 10.1}
{"smiles": "CCCc1cc(=O)oc2cc(C)cc(OC(C)C(=O)NCCN3CCOCC3)c12", "note": "(stereo not drawn)", "hERG current change (%, negative = inhibition) at 10uM": 0.296}
{"smiles": "Cc1cc(N2CCCC2)c(C)cc1C=O", "hERG current change (%, negative = inhibition) at 10uM": -13.5}
{"smiles": "Cc1ccc(Cl)c(NC(=O)COC(=O)c2nn(C)c(=O)c3ccccc23)c1Cl", "hERG current change (%, negative = inhibition) at 10uM": 0.332}
{"smiles": "O=C(Oc1cccc2c(OC(=O)N3CCCC3)cccc12)N1CCCC1", "hERG current change (%, negative = inhibition) at 10uM": -25.5}
{"smiles": "O=C(O)Cc1cn(-c2ccccc2)nc1-c1ccccc1", "hERG current change (%, negative = inhibition) at 10uM": 6.79}
{"smiles": "COc1ccc(Cl)cc1NC(=O)COC(=O)CCCN1C(=O)c2ccccc2C1=O", "hERG current change (%, negative = inhibition) at 10uM": 9.28}
{"smiles": "CCC1=Nc2cc(C(=O)N3CCC4(CC3)OCCO4)ccc2Sc2ccc(Br)cc21", "hERG current change (%, negative = inhibition) at 10uM": 2.08}
{"smiles": "COCCN1CCN(c2c3c(nc4cc(-c5cccc(F)c5)nn24)CCC3)CC1", "hERG current change (%, negative = inhibition) at 10uM": -26.4}
{"smiles": "O=C(Cc1ccc(Br)cc1)NC1CCCc2ccccc21", "note": "(stereo not drawn)", "hERG current change (%, negative = inhibition) at 10uM": 4.6}
{"smiles": "CCc1ccccc1Nc1ccc(C(=O)O)cc1N", "hERG current change (%, negative = inhibition) at 10uM": 21.1}
{"smiles": "COc1ccc(S(=O)(=O)N(C)CC(=O)Nc2cccc(C(C)=O)c2)cc1Cl", "hERG current change (%, negative = inhibition) at 10uM": -19}
{"smiles": "CC(=O)c1ccc(NC(=O)COC(=O)CCC(=O)c2cccs2)cc1", "hERG current change (%, negative = inhibition) at 10uM": -7.17}
{"smiles": "COc1cccc(NC(=O)CCS(=O)(=O)c2ccc3c(c2)oc(=O)n3C)c1", "hERG current change (%, negative = inhibition) at 10uM": 12.3}
{"smiles": "CC(=O)Nc1ccc(SCC(=O)Nc2cc(C(C)(C)C)nn2-c2ccccc2)cc1", "hERG current change (%, negative = inhibition) at 10uM": 8.45}
{"smiles": "COCCn1c(-c2ccc(OC)cc2)cnc1SCC(=O)Nc1cccc2ccccc12", "hERG current change (%, negative = inhibition) at 10uM": -21.8}
{"smiles": "COc1cccc2cc(C(=O)Oc3ccc(NC(C)=O)cc3)c(=O)oc12", "hERG current change (%, negative = inhibition) at 10uM": -4.07}
{"smiles": "COc1cccc(Cn2c(N)c(C#N)c3nc4ccccc4nc32)c1OC", "hERG current change (%, negative = inhibition) at 10uM": 11.7}
{"smiles": "Cc1nc2ccccn2c1C(=O)N/N=C/c1ccccc1", "hERG current change (%, negative = inhibition) at 10uM": 11.6}
{"smiles": "Cc1cc(Cl)c(C)c(S(=O)(=O)N2CCN(CC(=O)N3CCOCC3)CC2)c1Cl", "hERG current change (%, negative = inhibition) at 10uM": -64.8}
{"smiles": "Cc1cccc(C)c1NC(=O)CN1C(=O)COc2ccccc21", "hERG current change (%, negative = inhibition) at 10uM": 10.5}
{"smiles": "O=C(Nc1ccc(N2CCCC2)cc1)c1ccc(Cl)cc1Cl", "hERG current change (%, negative = inhibition) at 10uM": 29.8}
{"smiles": "CCN(CC(=O)Nc1ccc2c(c1)OCCO2)Cc1cc(=O)oc2cc(C)c(C)cc12", "hERG current change (%, negative = inhibition) at 10uM": -29.3}
{"smiles": "CN(C)Cc1c(O)ccc2occ(C(O)c3ccccc3)c12", "note": "(stereo not drawn)", "hERG current change (%, negative = inhibition) at 10uM": -2.08}
{"smiles": "COC(=O)c1cc2n(n1)CCN(Cc1ccc(C)cc1)C2=O", "hERG current change (%, negative = inhibition) at 10uM": 1.46}
{"smiles": "CCOc1ccc(-c2ccc(/C=C3/C(=N)N4C=CSC4=NC3=O)o2)c([N+](=O)[O-])c1", "hERG current change (%, negative = inhibition) at 10uM": -0.868}
{"smiles": "COc1ccc(CC(=O)N/N=C/c2cc(Br)cs2)cc1OC", "hERG current change (%, negative = inhibition) at 10uM": 12.4}
{"smiles": "O=C(Nc1ccccc1N1CCCC1)c1cccc(S(=O)(=O)N2CCOCC2)c1", "hERG current change (%, negative = inhibition) at 10uM": -2.41}
{"smiles": "Cc1ccc2cc(C#N)c(SCC(=O)N3CCCC3)nc2c1", "hERG current change (%, negative = inhibition) at 10uM": -9.99}
{"smiles": "O=C(NNC(=S)Nc1ccc(Cl)cc1)c1ccccc1", "hERG current change (%, negative = inhibition) at 10uM": 17.7}
{"smiles": "CC(C)CN(CC(C)C)c1nnc(NC(=O)Cn2c(=O)oc3ccccc32)s1", "hERG current change (%, negative = inhibition) at 10uM": 4.92}
{"smiles": "CC1CCN(C(=O)COc2ncnc3ccccc23)CC1", "hERG current change (%, negative = inhibition) at 10uM": 28.2}
{"smiles": "CC(C)[C@H](NC(=O)N1CCn2c1nc1ccccc12)C(=O)N[C@@H](C(=O)O)c1ccccc1", "hERG current change (%, negative = inhibition) at 10uM": 17.7}
